Data as given in PubChem BioAssay AID588591 (National Center for Advancing Translational Sciences (NCATS), 2011).
Out of some 390,000 compounds screened, about 4,700 (1.2%) were called active. Inconclusive means that the source gave no clear call. Such entries were picked first, then a sample of the others. Calls follow the shape of the dose curve; as a rule, active = well fitted inhibition curve with a large enough effect; inconclusive = small, poorly fitted or top-dose-only effect, or another doubt; inactive = no such curve, though single readings can be large or run the other way. A potency beside an inconclusive call is a rough fit, not a confirmed value.

Biological target: DNA polymerase eta (Homo sapiens) (UniProt Q9Y253)
UniProt Q9Y253, sequence (Q9Y253 whole entry, looked up): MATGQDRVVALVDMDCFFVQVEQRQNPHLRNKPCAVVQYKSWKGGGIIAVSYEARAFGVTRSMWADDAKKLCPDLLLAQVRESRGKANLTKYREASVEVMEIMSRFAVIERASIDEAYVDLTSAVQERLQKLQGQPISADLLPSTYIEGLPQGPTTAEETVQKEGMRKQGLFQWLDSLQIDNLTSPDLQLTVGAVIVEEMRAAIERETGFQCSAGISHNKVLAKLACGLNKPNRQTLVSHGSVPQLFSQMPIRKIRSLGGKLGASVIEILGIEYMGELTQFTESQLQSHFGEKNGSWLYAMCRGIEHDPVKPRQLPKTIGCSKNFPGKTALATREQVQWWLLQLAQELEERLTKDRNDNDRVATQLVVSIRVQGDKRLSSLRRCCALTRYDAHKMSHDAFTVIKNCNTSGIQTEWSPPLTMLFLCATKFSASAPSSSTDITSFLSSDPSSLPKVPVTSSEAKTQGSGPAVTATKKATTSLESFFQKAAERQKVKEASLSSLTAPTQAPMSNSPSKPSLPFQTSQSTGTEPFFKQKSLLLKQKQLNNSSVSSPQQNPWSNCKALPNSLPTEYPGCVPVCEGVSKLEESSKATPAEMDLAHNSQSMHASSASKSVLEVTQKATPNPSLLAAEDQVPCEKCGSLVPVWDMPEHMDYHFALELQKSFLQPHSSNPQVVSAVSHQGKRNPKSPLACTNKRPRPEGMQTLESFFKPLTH
Test: qHTS for Inhibitors of Polymerase Eta
Details: recombinant Pol eta, fluorescent DNA replication assay; series mostly up to 114 µM
Summary of the method: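 Fluorescent replication assay: 50 nM final substrate added after a 15 min room-temperature compound preincubation with 10 nM enzyme. Signal taken at 0 min and again at 10 min.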
Potency is read from the fitted curve at half-maximal effect; tags tell the direction and shape of the fitted curve.

Row | SMILES | Potency
1 | CC(Oc1ccccc1)C(=O)Nc1ccc(S(=O)(=O)N2CCCC2)cc1 (stereo unspecified) | inconclusive: 89.1 µM [inhibitor, partial curve, poor fit]
2 | Cc1ccc(NC(=O)c2nc[nH]c2C(=O)N[C@H](C)c2ccccc2)cc1 | inconclusive: 79.4 µM [inhibitor, partial curve, poor fit]
3 | Cc1cccc2cc(CNCc3ccccc3)c(Cl)nc12 | inconclusive: 79.4 µM [inhibitor, partial curve, poor fit]
4 | Cc1ccc(NC(=S)/C(C#N)=C2/Nc3ccccc3S2)cc1 | active: 39.8 µM
5 | Cc1ccc(C)c(NS(=O)(=O)c2ccc(OCC(=O)NCc3ccco3)cc2)c1 | inconclusive: 39.8 µM [inhibitor, partial curve, poor fit]
6 | Cc1ccc(S(=O)(=O)N2[C@@H](c3cccc(Cl)c3)C(C(=O)O)=CC[C@H]2c2ccc(C(C)C)cc2)cc1 | active: 89.1 µM
7 | Cc1ccc(S(=O)(=O)N2CCOCC2)cc1C(=O)NC(C)CCc1ccccc1 (stereo unspecified) | inconclusive: 100 µM [inhibitor, partial curve, poor fit]
8 | CCCCOc1ccc(CNC(=O)c2ccc3c(c2)N(C)C(=O)C2CCCCN32)cc1 (stereo unspecified) | inactive
9 | CCCn1c(N)c(N(CCOC)C(=O)CSc2cc(C)c3cccc(C)c3n2)c(=O)[nH]c1=O | inconclusive: 100 µM [inhibitor, partial curve, poor fit]
10 | Cc1cc(=O)oc2c(C(=O)/C=C\c3cccs3)c(O)ccc12 | inconclusive: 20 µM [inhibitor, single point]
11 | COCCOC(=O)c1[nH]c2c(c1C)C(=O)CC(c1ccco1)C2 (stereo unspecified) | active: 12.6 µM
12 | COCCN(C(=O)c1cc2c(s1)CCC2)c1c(N)n(CC(C)C)c(=O)[nH]c1=O | active: 8.91 µM
13 | O=C(CSc1nnc(-c2ccc(C(F)(F)F)cn2)o1)Nc1ccccc1Cl | inactive
14 | Cc1ccccc1CSc1ccc(-c2cccs2)nn1 | inactive
15 | Nn1c(SCC(=O)NC(=O)NCc2ccco2)nnc1-c1ccc(OC(F)F)cc1 | active: 8.91 µM
16 | CCOc1ccc(NS(=O)(=O)c2cc(C)c(C)cc2C)cc1 | inconclusive: 79.4 µM [inhibitor, partial curve, poor fit]
17 | COCCn1c(C)cc(C(=O)COC(=O)c2ccc([N+](=O)[O-])o2)c1C | active: 79.4 µM
18 | Cc1ccc(S(=O)(=O)N2Cc3ccccc3CC2C(=O)Nc2ccc3c(c2)OCO3)cc1 (stereo unspecified) | active: 10 µM
19 | COC1C(CO)OC(n2c3c(Cl)cccc3c3c4c(c5c6cccc(Cl)c6[nH]c5c32)C(=O)NC4=O)C(O)C1O (stereo unspecified) | inconclusive: 3.55 µM [inhibitor, partial curve, poor fit]
20 | CC(=O)Oc1ccc(C(=O)Nc2ccccc2C(=O)Nc2cccc(C(=O)O)c2)cc1 | inactive
21 | Cc1ccccc1C(=O)Nc1cccc(C(=O)Nc2ccccc2C(=O)O)c1 | inactive
22 | COc1cccc2cc(C(=O)C3=C(O)C(=O)N(CCN(C)C)C3c3ccc(F)cc3)oc12 (stereo unspecified) | inconclusive: 100 µM [inhibitor, partial curve, poor fit]
23 | Oc1nc(Nc2ccc(Cl)cc2Cl)sc1/C=C1\C=Nc2ccccc21 | active: 14.1 µM

Row | SMILES | Potency
24 | NCCCC[C@@H]1NC(=O)[C@H](CCC(=O)O)NC(=O)c2cc([N+](=O)[O-])cc(I)c2OCC[C@@H](C(N)=O)NC1=O | active: 14.1 µM
25 | CCCOc1ccc(N)cc1N | inconclusive: 2.82 µM [inhibitor, full curve]
26 | Cc1ccc(NC(=O)Cn2c(-c3cncs3)nc3ccccc32)c(Br)c1 | inactive
27 | O=C(CSc1nc2ccccc2nc1N1CCOCC1)Nc1ccccc1F | inconclusive: 89.1 µM [inhibitor, partial curve, poor fit]
28 | CCOc1ncccc1C(=O)OCC(=O)Nc1ccc2c(c1)CCC2 | inconclusive: 3.55 µM [inhibitor, full curve, poor fit]
29 | CC(C(=O)Nc1cc(Cl)cc(Cl)c1)N1CCCC1 (stereo unspecified) | inactive
30 | COc1cc(/C=C2/SC(=S)NC2=O)ccc1OS(=O)(=O)c1ccc(C)cc1 | active: 28.2 µM
31 | COc1ccccc1NC(=O)c1cnc(SCC(=O)N2CCOCC2)n(C)c1=O | inconclusive: 100 µM [inhibitor, single point]
32 | COc1ccc2cc(-c3cc(C(=O)O)c4ccccc4n3)ccc2c1 | inactive
33 | CCC(=O)OC1(C)C(=O)C=C2C=C(c3ccsc3)OC=C2C1=O (stereo unspecified) | active: 50.1 µM
34 | COc1ccc(C(C)=O)cc1CC(=O)Nc1cccc(S(=O)(=O)N2CCOCC2)c1 | inactive
35 | CCn1nc(CC(=O)Nc2ccc(-n3cnnn3)c(OC)c2)c2ccccc2c1=O | inconclusive: 31.6 µM [inhibitor, partial curve, poor fit]
36 | O=C1c2ccccc2CCc2ccccc21 | inactive
37 | Cc1ccc(N(C(C)C(=O)Nc2ccc3c(c2)OCO3)S(C)(=O)=O)cc1 (stereo unspecified) | inconclusive: 12.6 µM [inhibitor, partial curve, poor fit]
38 | Brc1ccc(C2=Nc3ccccc3C(c3ccncc3)=NN2)cc1 | inconclusive: 44.7 µM [inhibitor, partial curve, poor fit]
39 | CCOC(=O)CCCN1CC(O)=C(c2nc(-c3ccc(Cl)cc3)cs2)C1=N | inactive
40 | Cc1ccc(-n2c(O)c(C=NC3CCS(=O)(=O)C3)c3ccccc3c2=O)cc1C (stereo unspecified) | inactive
41 | COCCCNC(=O)c1cc(S(=O)(=O)N2CCC3(CC2)OCCO3)ccc1F | inactive
42 | CCc1cccc(C)c1NC(=O)Cn1nnc(-c2nc(-c3ccccc3F)no2)c1N | inconclusive: 25.1 µM [inhibitor, partial curve, poor fit]
43 | CCN(CC)C(=O)CSc1nc2ccc(NC(=O)CSc3nccn3C)cc2s1 | inactive
44 | OC1(c2ccc3c(c2)OCO3)CCN(Cc2ccc(F)cc2)CC1 | inconclusive: 89.1 µM [inhibitor, partial curve, poor fit]
45 | c1cnc(N2CCN(c3ncc4c(n3)CCNC4)CC2)nc1 | active: 17.8 µM
46 | CCOC(=O)C(=CNc1nc(-c2ccccc2)c(C(=O)Nc2ccc(-c3ccccc3)cc2)s1)C(=O)OCC | inconclusive: 39.8 µM [inhibitor, partial curve, poor fit]
